Screen size: about 310,000 compounds; about 14,000 (4.5%) showed an effect of 50% or more. The effect is printed as a negative number. The list shows a part of the results.
Each compound was assayed against human ether-à-go-go-related gene (hERG) potassium channel (human, UniProt Q12809) (assay: primary screen, population patch clamp on CHO cells stably expressing hERG).
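Note: peak tail current of the secondary pulse compared with the same well before compound.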

Sequence of human ether-à-go-go-related gene (hERG) potassium channel (Q12809 whole entry, looked up): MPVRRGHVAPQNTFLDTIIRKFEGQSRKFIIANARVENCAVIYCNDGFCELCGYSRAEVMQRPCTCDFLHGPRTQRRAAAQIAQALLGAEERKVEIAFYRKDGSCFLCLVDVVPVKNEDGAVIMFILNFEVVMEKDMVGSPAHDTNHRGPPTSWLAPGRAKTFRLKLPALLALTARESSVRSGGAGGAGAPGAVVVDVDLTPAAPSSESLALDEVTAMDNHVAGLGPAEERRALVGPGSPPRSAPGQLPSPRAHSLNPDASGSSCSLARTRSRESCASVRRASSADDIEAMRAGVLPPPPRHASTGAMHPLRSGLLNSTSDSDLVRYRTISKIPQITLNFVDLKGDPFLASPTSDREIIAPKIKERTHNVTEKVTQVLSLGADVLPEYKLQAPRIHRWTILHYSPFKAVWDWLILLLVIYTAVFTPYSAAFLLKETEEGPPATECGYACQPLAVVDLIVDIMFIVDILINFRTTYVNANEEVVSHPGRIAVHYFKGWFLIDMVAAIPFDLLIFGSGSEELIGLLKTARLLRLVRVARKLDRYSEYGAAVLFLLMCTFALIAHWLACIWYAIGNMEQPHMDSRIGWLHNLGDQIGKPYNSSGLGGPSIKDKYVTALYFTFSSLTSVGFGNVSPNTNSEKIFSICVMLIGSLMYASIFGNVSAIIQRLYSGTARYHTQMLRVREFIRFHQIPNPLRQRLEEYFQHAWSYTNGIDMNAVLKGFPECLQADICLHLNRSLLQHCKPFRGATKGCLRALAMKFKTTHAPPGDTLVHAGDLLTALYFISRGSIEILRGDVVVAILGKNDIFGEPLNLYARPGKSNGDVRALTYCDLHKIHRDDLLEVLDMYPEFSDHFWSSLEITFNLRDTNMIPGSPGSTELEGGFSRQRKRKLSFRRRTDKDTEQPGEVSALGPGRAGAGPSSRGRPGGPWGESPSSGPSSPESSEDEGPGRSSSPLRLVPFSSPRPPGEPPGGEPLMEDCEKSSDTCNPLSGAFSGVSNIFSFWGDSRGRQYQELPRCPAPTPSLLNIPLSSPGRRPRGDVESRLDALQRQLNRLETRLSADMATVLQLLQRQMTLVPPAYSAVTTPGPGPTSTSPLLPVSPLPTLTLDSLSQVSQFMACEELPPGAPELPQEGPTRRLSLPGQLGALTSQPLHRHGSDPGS

Row | SMILES | hERG current change (%, negative = inhibition) at 10uM
1 | CC1(C)Cc2c(sc3c2C2=NCCN2C=N3)CS1.Cl | -16.3%
2 | CCOC(=O)c1sc2nc(C)nc(NCc3ccc(Cl)cc3)c2c1C | -80.6%
3 | CC(=O)c1ccc(OCC(O)CN2CCN(S(=O)(=O)c3cccc(Br)c3)CC2)cc1 (stereo not drawn) | 22.8%
4 | O=C(CN1CCN(S(=O)(=O)N2CCCCCC2)CC1)Nc1ccc(F)cc1 | -74.9%
5 | Cc1ccc(Cc2cnc(NC(=O)c3cccs3)s2)cc1 | -5.59%
6 | COc1ccc(Cn2c(CO)cnc2SCC(=O)Nc2cc(C)on2)cc1 | 10.7%
7 | N=c1oc2ccccc2cc1C(=O)N/N=C/c1ccccc1 | -25.1%
8 | COc1ccc(NS(=O)(=O)c2ccc(NC(=S)NCC3CCCO3)cc2)cc1 (stereo not drawn) | 5.45%
9 | CCOC(=O)c1cc(C)n(-c2ccc(OC)c(OC)c2)c1C | -16.5%
10 | COc1ccc(-n2c(Cc3cc(=O)[nH]c(=O)[nH]3)nnc2SCC(=O)Nc2cc(C(F)(F)F)ccc2Cl)cc1 | -3.73%
11 | CS(=O)(=O)N1CCN(C(=O)Cc2ccc([N+](=O)[O-])cc2)CC1 | 0.692%
12 | COc1cc(OC)c(C(=O)Nc2ncn[nH]2)cc1OC | -1.15%
13 | COc1ccc(NC(=S)Nc2ccc(Oc3ccccc3)cc2)cc1 | 3.14%
14 | CC1CN(C(=O)CCC(=O)NCc2ccccc2Cl)c2ccccc2S1 (stereo not drawn) | -17.9%
15 | CC(C)P(=O)(Cc1cccc(C#N)c1)C(C)C | -0.435%
16 | Cc1cccc(NC(=O)CCc2nc3sc4c(c3c(=O)[nH]2)CCCC4)n1 | -3.28%
17 | Cc1nnc(N2C(=O)c3cccc4c([N+](=O)[O-])ccc(c34)C2=O)s1 | 4.88%
18 | Cc1ccc(-n2c3nc(=O)[nH]c(=O)c-3cc3cc([N+](=O)[O-])ccc32)cc1C | -26.9%
19 | COc1cc(NS(=O)(=O)c2ccc(NC(=O)COc3ccc(C)cc3C)cc2)nc(OC)n1 | -10.7%
20 | Cc1ccc(S(=O)(=O)NNC(=O)CCC(=O)Nc2ccc(C)c(C)c2)cc1 | 9.01%
21 | O=C(CCc1ccc(S(=O)(=O)N2CCOCC2)cc1)NN=C1CCCCCCC1 | -17.5%
22 | CC(C)OC(=O)CSc1nc(-c2ccc(F)cc2)cc(C(F)(F)F)n1 | 11.7%
23 | COc1cccc(C2CC(c3ccc(C)cc3)=NN2C(=O)c2ccccc2F)c1OC (stereo not drawn) | 11.8%

Row | SMILES | hERG current change (%, negative = inhibition) at 10uM
24 | C=CCSc1ncnc2sc(C)c(C)c12 | 9.87%
25 | CS(=O)(=O)c1ccc(N)cc1 | 7.62%
26 | O=C(Nc1nccs1)c1ccc2c(c1)OCO2 | 16.3%
27 | CC1(C)CC(=O)C/C(=N/NC(=O)C2CCN(S(=O)(=O)c3cccs3)CC2)C1 | 20%
28 | CCOC(=O)c1sc2nc(C)nc(SC(C)C(=O)NC3CC3)c2c1C (stereo not drawn) | 10%
29 | O=c1[nH]c(=S)n(C2CC2)c(O)c1C=Nc1cccc(C(F)(F)F)c1 | 12.8%
30 | CNC(=S)N1CCC(NC(=O)c2ccco2)CC1 | 0.31%
31 | Cc1nnsc1S(=O)(=O)Cc1ccccc1C(F)(F)F | -3.42%
32 | COc1cc(-c2noc(C)c2-c2ccc(N(C)C)nc2)cc(OC)c1OC | -26.4%
33 | Cc1ccc(NC(=S)NN2CCOCC2)c(C)c1 | 5.25%
34 | O=C(Nc1nnc(-c2ccc3c(c2)CCCC3)o1)c1ccccc1Cl | -10.2%
35 | CCOP(=O)(OCC)c1cccc(OP(=O)(c2cccc([N+](=O)[O-])c2)c2cccc([N+](=O)[O-])c2)c1 | 11.1%
36 | Cn1nnnc1SCC(=O)N1CCN(C(c2ccccc2)c2ccccc2)CC1 | -14.7%
37 | COc1ccc(CNC(=O)COc2ccc(F)cc2)cc1 | 2.33%
38 | CSc1ccc(C(=O)C2CCCN(C(=O)CCc3c(C)nn(C)c3C)C2)cc1 (stereo not drawn) | 0.803%
39 | NS(=O)(=O)c1ccc(CCNC(=O)c2cncc(Br)c2)cc1 | -2.92%
40 | COc1ccc([N+](=O)[O-])cc1NC(=O)COC(C)=O | 31.5%
41 | COc1ccc(C=Nc2cccnc2N)cc1 | 21.9%
42 | COc1ccc(-c2cc(C(=O)N(C)CC(=O)Nc3ccccc3Br)c3ccccc3n2)cc1OC | -15.1%
43 | Cc1ccc(CN2CC(C(=O)N3CCN(S(=O)(=O)c4ccc(C)cc4C)CC3)CC2=O)cc1 (stereo not drawn) | -28.2%
44 | CCOc1ccc(/C=C(/NC(=O)c2ccccc2Cl)C(=O)O)cc1 | 13%
45 | CCCNC(=O)c1ccc(SCC(=O)N(CC)CC)c([N+](=O)[O-])c1 | -13.2%
46 | O=C(NCc1csc(-c2cccs2)n1)Nc1cccc(Cl)c1 | 5.12%

Row | SMILES | hERG current change (%, negative = inhibition) at 10uM
47 | COCCCNC(=S)NC1CC2CCC(C1)N2Cc1ccccc1 (stereo not drawn) | -33.8%
48 | Cc1nn(C(=O)c2ccoc2C)c(N)c1-c1ccccc1 | -7.95%
49 | Cc1ccc(Nc2nc(C(=O)NCc3ccco3)cs2)cc1 | -13.5%
50 | O=C(NC1CCSc2ccccc21)c1cccc(Br)c1 (stereo not drawn) | 16.7%
51 | O=C(Nc1nnc(-c2ccccc2)s1)c1cccc(S(=O)(=O)N2CCOCC2)c1 | 7.54%
52 | CC(C)Cc1cc(C(=O)N2CCC(N3CCC(C(=O)NC4CC4)CC3)CC2)n[nH]1 | -12.4%
53 | C/C(=N\NC(=O)COc1ccc(C(C)(C)C)cc1)c1ccc(OC(F)F)cc1 | -1.27%
54 | Cc1cccnc1-n1c(-c2ccccc2)nc2ccccc2c1=O | -2.8%
55 | CN1CCN(S(=O)(=O)c2cccc(C(=O)Oc3cccc(C#N)c3)c2)CC1 | -1.89%
56 | Brc1cccc(CNCc2cccs2)c1 | -10.2%
57 | CC1=C(C(=O)OCc2ccccc2)C(c2ccco2)C2=C(CC(C)(C)CC2=O)N1 (stereo not drawn) | -7.52%
58 | O=C(CN1C(=O)C2CC=C(Cl)CC2C1=O)N1CCOCC1 (stereo not drawn) | -2.87%
59 | CCOC(=O)c1ccccc1NC(=O)c1ccccc1NS(C)(=O)=O | -0.0503%
60 | COC(=O)c1sc(-c2ccc(C(C)(C)C)cc2)cc1NC(=O)COCC(=O)O | 19.3%
61 | Cc1ccc(SC(=O)c2c(C)noc2-c2cc(C)on2)cc1 | 11.8%
62 | Cc1ccc2oc(-c3ccc(C)c(NC(=O)Cc4cccs4)c3)nc2c1 | 12%
63 | Cc1cc(O)c(C(C)C)cc1N=C1CSC(=O)N1 | 4.9%
64 | CC(Oc1cccc(Cl)c1)C(=O)Nc1ccc(N2CCOCC2)cc1N1CCOCC1 (stereo not drawn) | -47.9%
65 | COc1cccc2c(=O)ccoc12 | -7.89%
66 | CC(C)Oc1c(N2CCOCC2)c(=O)c1=O | 16.3%
67 | C#CCN1C(=O)C(O)(CC(=O)c2cccc(OC)c2)c2ccccc21 (stereo not drawn) | 11.9%
68 | Cc1cn2c(nc1=O)OC1C(O)C(COC(=O)c3ccccc3)OC12 (stereo not drawn) | 12.9%
69 | CCOc1cccc2sc(N(CCN(CC)CC)C(=O)c3cccc(N4C(=O)CCC4=O)c3)nc12.Cl | -68.4%

Row | SMILES | hERG current change (%, negative = inhibition) at 10uM
70 | Cc1ccccc1OCCn1nc(C(=O)O)c2ccccc2c1=O | -20.5%
71 | Nc1cccnc1Sc1cc(Cl)cc(Cl)c1 | -18.1%
72 | Cc1nnc(NC(=O)C2CCCC2)s1 | 17.3%
73 | CC12CCC(C(=O)NNc3ccccc3)(OC1=O)C2(C)C (stereo not drawn) | 10.6%
74 | Cc1ccc(C2(c3noc(CN4CCOCC4)n3)CCCC2)cc1 | 17.3%
75 | COc1ccc(C(=S)N2CCOCC2)cc1OC(=O)c1ccc([N+](=O)[O-])cc1 | -63%
76 | COc1cccc(-n2c(N)cc(=O)nc2SCC(=O)N2CCN(c3ccccc3)CC2)c1 | 18.7%
77 | NC(=O)c1nsc(C(=O)N(CC(=O)NC2CCCC2)c2ccc(F)c(Cl)c2)c1N | 7.4%
78 | COc1ccccc1CCn1cc(C#N)c(=O)[nH]c1=O | 14.7%
79 | Brc1ccc(-c2nnc3n2C2(CCCC2)Cc2ccccc2-3)o1 | -15%
80 | CC(C)(C)n1nnnc1C(c1cccs1)N1CCCc2ccccc21 (stereo not drawn) | -15.5%
81 | CCOc1ccc2oc(C(=O)N(C)CCc3ccc(OC)c(OC)c3)c(C)c2c1 | -30.9%
82 | CCCCN(C(=O)/C=C/c1ccco1)c1c(N)n(Cc2ccccc2)c(=O)[nH]c1=O | 5.48%
83 | O=C(/C=C/c1ccccc1)NC(=S)NNC(=O)c1cccnc1 | 23.1%
84 | Cc1cc(S(=O)(=O)NCC(C)C)ccc1OCC(=O)NCc1ccco1 | -73.4%
85 | Cn1c(O)c(C(=NCCN2CCCCC2)c2ccccc2Cl)c(=O)n(C)c1=O | 1.78%
86 | O=C(c1ccc(COc2ccccc2Cl)o1)N1CCOCC1 | -7.89%
87 | CCN(c1ccccc1)S(=O)(=O)c1ccc(Cl)c(NC(=O)CN2C(=O)NC3(CCCC3)C2=O)c1 | -22%
88 | Cc1ccc(-n2nc3c(c2NC(=O)C2CCCC2)CS(=O)(=O)C3)cc1 | 9.25%
89 | O=C(Nc1cccc(/C=C/c2ccccn2)c1)c1cc(Cl)ccn1 | -1.01%
90 | CCN(C(=O)COC(=O)c1ccc(Cl)nc1)C1CCS(=O)(=O)C1 (stereo not drawn) | 16%
